Test results reported in the supplement of paper PMC12889115.
Some of the results follow. Single values are uncertain, as repeats are few or missing.
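Further: polymyxin B level opens the outer membrane while sparing the inner membrane, with novobiocin wells as reference growth inhibitor.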

These compounds were tested on Salmonella enterica serovar Typhimurium SL1344 (assay: bacterial growth OD600 after 18 h in MHB with 0.5 µg/mL polymyxin B; higher = more bacterial growth (less inhibition)). Settings: 25 µM; polymyxin B 0.5 µg/mL; system: broth.
Method: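 Secondary screen of the 553 primary hits at 25 µM. (i) S. Typhimurium SL1344 grown in Mueller-Hinton broth with 0.5 µg/mL polymyxin B, OD600 read after 18 h. (ii) SAFIRE assay: RAW 264.7 macrophages infected with S. Typhimurium sifB::gfp (MOI 30); compound added 2 h post-infection; cells fixed at 18 h; GFP-positive pixel fraction per macrophage imaged by confocal microscopy and expressed as % of DMSO control.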
COc1cccc(CN2CCCC(C(=O)c3ccc(Cl)cc3C)C2)c1O (stereo not drawn) was tested, and the “bacterial growth OD600” value was 0.006. O=C(c1cn(Cc2ccccc2F)nn1)N(Cc1ccccc1)CC1CC1 was tested, and the “bacterial growth OD600” value was 0.001. O=C(c1cn(Cc2c(F)cccc2F)nn1)N(Cc1ccccc1)CC1CCC1 was tested, and the “bacterial growth OD600” value was -0.005.
